Measurements: PubChem BioAssay (NCATS)
The shares of active, inactive and inconclusive entries below differ from those in the screen. A potency beside an inconclusive call is a rough fit, not a confirmed value. Activity calls are given as the source filed them. The call rests on the fitted dose curve; in most records, active means well fitted cell-killing curve with a large enough effect; inconclusive means small, poorly fitted or top-dose-only effect, or effect the other way; inactive means no such curve, though single readings can be large or run the other way.

assay: MultiTox-Fluor Cytotoxicity Assay - LYMP1-002 - Dead Cells (AID 960); details: LYMP1-002 lymphoblastoid cells, dead-cell protease fluorescence; series mostly up to 46.1 µM; cytotoxicity (dead cells): at the top concentration; further: nearly all actives have a fitted effect of over 60% in size;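 on cytotoxicity (dead cells): 0% = DMSO and 100% = tetraoctylammonium bromide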
Text: NIH Chemical Genomics Center [NCGC]
NIH Molecular Libraries Screening Centers Network [MLSCN]
National Institutes of Environmental Health Sciences [NIEHS]
National Toxicology Program [NTP]
We have developed a 1536-well cell-based assay for quantitative high throughput screening (qHTS) against a number of cell lines to determine in vitro cytotoxicity of small molecules. This particular assay uses a human lymphoblastoid cell line (LYMP1-002) purchased from Coriell Institute.
NCGC Assay Protocol Summary:
The MultiTox-Fluor Cytotoxicity Assay (Promega) is a homogeneous method to simultaneously measure the relative number of live and dead cells in culture by detecting changes in cell membrane integrity. There are two fluorogenic peptide substrates in the assay reagent. Viable cells are determined when the cell-permeant substrate (GF-AFC) enters the cell and is cleaved by protease from live cells resulting in liberated fluorophore. This live-cell protease activity restricted to viable cells is proportional to cell number. The dead cells are determined by using fluorogenic cell-impermeant peptide substrate (bis-AAF-R110) which cleaved by dead cell proteases leaking from damaged cell membrane.
Using the MultiTox-Fluor Cytotoxicity Assay, the relative number of dead cells was measured in the lymphoblastoid cell line with complete culture medium following compound treatment for 16 hours. The assay was performed in opaque black Kalypsys 1536-well plates. In the screen, tetraoctylammonium bromide was used as positive control. Library compounds were measured for their ability to cause acute toxicity in the cell line, as reflected by an increase in dead cell protease activity, in a concentration-dependent manner. Data were normalized to the controls for basal activity (DMSO only) and 100% stimulation (15 uM tetraoctylammonium bromide). AC50 values were determined from concentration-response data modeled with the standard Hill equation.
qHTS protocol for MultiTox-Fluor Cytotoxicity assay
[Step] [Parameter] [Value] [Description]
1. Reagent; 5 uL; 2500 lymphoblastoid cells/well
2. Time; 5 hr; 37 C incubation
4. Controls; 23 nL; Tetraoctylammonium bromide 6.4pM to 92 uM
5. Time; 16 hr; 37 C incubation
6. Reagent; 5 uL; MuliTox-Fluor Assay reagent
7. Time; 60 min; Room Temperature
8. Detection; dead-cell fluorescence (Ex/Em=485/520); EnVision plate reader
Keywords: cytotoxicity, lymphoblastoid cell line, fluorescence, NTPHTS, NTPHTS_NCGC, NIEHS, EPA, DSSTox, MLSMR, MLSCN, NIH Roadmap, qHTS, NCGC
Potency means the concentration at half of the fitted maximal effect; tags describe the fitted curve by direction and shape.

| Compound | Potency | cytotoxicity (dead cells) |
| --- | --- | --- |
| Nc1ccc(O)c([N+](=O)[O-])c1 | inconclusive: 0.1 µM [cytotoxic, full curve, poor fit] | – |
| CCCCCCCCCCCCCCCCCC(=O)O | – | inactive: -24.5% |
| C#C[C@]1(O)CC[C@H]2[C@@H]3CCc4cc(O)ccc4[C@H]3CC[C@@]21C | inconclusive: 31.6 µM [cytotoxic, partial curve, poor fit] | – |
| NC(=O)c1ccccc1 | inconclusive: 0.0501 µM [cytotoxic, full curve, poor fit] | – |
| Oc1ccc(O)cc1 | active: 12.6 µM | – |
| O=c1cc(-c2ccccc2)oc2ccccc12 | – | inactive: 20.4% |
| CCCOC(=O)c1ccc(O)cc1 | inconclusive: 31.6 µM [cytotoxic, partial curve, poor fit] | – |
| CN(C)c1ccc(C(=C2C=CC(=[N+](C)C)C=C2)c2ccccc2)cc1 | active: 1.58 µM | – |
| N=C1N=C(N)c2cc3ccccc3cc21 | inconclusive: 31.6 µM [cytotoxic, single point] | – |
| CN(C)c1ccc2nc3ccc(=[N+](C)C)cc-3sc2c1 | inconclusive: 31.6 µM [cytotoxic, partial curve, poor fit] | – |
| CCCCC(CC)COC(=O)C(C#N)=C(c1ccccc1)c1ccccc1 (configuration not stated) | inconclusive: 15.8 µM [cytotoxic, partial curve, poor fit] | – |
| CC(=O)Oc1ccccc1C(=O)O | inconclusive: 31.6 µM [cytotoxic, partial curve] | – |
